Measured values published in the supplement of paper PMC10320760.
This is a noisy data set.

B1: Ydj1; a variant is named by its letters at X, in order (parent)
chain: MVKETKFYDILGVPVTATDVEIKKAYRKCALKYHPDKNPSEEAAEKFKEASAAYEILSDPEKRDIYDQFGEDGLSGAGGAGGFPGGGFGFGDDIFSQFFGAGGAQRPRGPQRGKDIKHEISASLEELYKGRTAKLALNKQILCKECEGRGGKKGAVKKCTSCNGQGIKFVTRQMGPMIQRFQTECDVCHGTGDIIDPKDRCKSCNGKKVENERKILEVHVEPGMKDGQRIVFKGEADQAPDVIPGDVVFIVSERPHKSFKRDGDDLVYEAEIDLLTAIAGGEFALEHVSGDWLKVGIVPGEVIAPGMRKVIEGKGMPIPKYGGYGNLIIKFTIKFPENHFTSEENLKKLEEILPPRIVPAIPKKATVDECVLADFDPAKYNRTRASRGGANYDSDEEEQGGEGVQCXXX

Variants of: B1
Experiment: enrichment factor, frequency at 37 °C / frequency at 25 °C (thermotolerance selection) (ratio); higher = more growth at 37 °C, higher likelihood of farnesylation
Conditions: with Saccharomyces cerevisiae ydj1Δ (yWS304); selective temperature 37 °C; reference temperature 25 °C
Experimental: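 Pooled library of all 8,000 Ydj1-CXXX C-terminal motif variants (native CASQ replaced by C + three variable residues, one codon per amino acid) expressed from a CEN plasmid in S. cerevisiae ydj1Δ (yWS304). The library was grown in SC-Ura liquid to A600 ~2 (~8 generations) at permissive 25 °C or selective 37 °C. Reads from 8 and 7 replicates were pooled and variants counted by NGS. Enrichment factor = frequency at 37 °C / frequency at 25 °C, with a +1 correction; it reports Ydj1-dependent thermotolerance, used as a read-out of farnesylation by yeast FTase.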

Q: For LIG, which enrichment factor is on record?
A: 1.49

Q: For LII, which enrichment factor is on record?
A: 1.25

Q: Which enrichment factor does the source give for LIK here?
A: 1.85

Q: For LIL, which enrichment factor is on record?
A: 0.764

Q: For LIF, which enrichment factor is on record?
A: 2.32

Q: Which enrichment factor does the source give for LIM here?
A: 1.2

Q: Which enrichment factor does the source give for LID here?
A: 1.57

Q: How did the enrichment factor turn out when LIE was run?
A: 1.61

Q: How did the enrichment factor turn out when LIH was run?
A: 2.12

Q: With EIM as the variant, how does the enrichment factor read?
A: 1.8

Q: EIH was tested. Which enrichment factor did it give?
A: 1.43

Q: How did the enrichment factor turn out when EII was run?
A: 1.26

Q: EIG was tested. Which enrichment factor did it give?
A: 2.32

Q: For EIF, which enrichment factor is on record?
A: 2.32

Q: For EIK, which enrichment factor is on record?
A: 1.92

Q: Which enrichment factor does the source give for EIL here?
A: 2.9

Q: How did the enrichment factor turn out when EIE was run?
A: 1.56

Q: With TII as the variant, how does the enrichment factor read?
A: 0.734

Q: With TIH as the variant, how does the enrichment factor read?
A: 3.01

Q: For TIK, which enrichment factor is on record?
A: 1.31

Q: How did the enrichment factor turn out when TID was run?
A: 3.26

Q: TIG was tested. Which enrichment factor did it give?
A: 0.869

Q: TIL was tested. Which enrichment factor did it give?
A: 0.806

Q: How did the enrichment factor turn out when TIF was run?
A: 1.08

Q: How did the enrichment factor turn out when TIE was run?
A: 2.58

Q: How did the enrichment factor turn out when QIL was run?
A: 1.03

Q: How did the enrichment factor turn out when QIE was run?
A: 2.3

Q: QIM was tested. Which enrichment factor did it give?
A: 1.2

Q: How did the enrichment factor turn out when QIF was run?
A: 2.61

Q: With QIG as the variant, how does the enrichment factor read?
A: 3.65

Q: With QIH as the variant, how does the enrichment factor read?
A: 2.56

Q: With QIK as the variant, how does the enrichment factor read?
A: 3.38

Q: Which enrichment factor does the source give for QII here?
A: 1.24

Q: Which enrichment factor does the source give for QID here?
A: 2.41

Q: With GIE as the variant, how does the enrichment factor read?
A: 1.75

Q: How did the enrichment factor turn out when GIF was run?
A: 0.772

Q: For GIG, which enrichment factor is on record?
A: 2.71

Q: With GII as the variant, how does the enrichment factor read?
A: 0.834

Q: For GIL, which enrichment factor is on record?
A: 1.62

Q: For GIH, which enrichment factor is on record?
A: 1.98

Q: With GIM as the variant, how does the enrichment factor read?
A: 1.19

Q: With GIK as the variant, how does the enrichment factor read?
A: 2

Q: HIH was tested. Which enrichment factor did it give?
A: 1.38

Q: HIF was tested. Which enrichment factor did it give?
A: 1.27

Q: How did the enrichment factor turn out when HIG was run?
A: 0.869

Q: With HIL as the variant, how does the enrichment factor read?
A: 1.13

Q: For HII, which enrichment factor is on record?
A: 1.34

Q: HIE was tested. Which enrichment factor did it give?
A: 3.94

Q: With HIK as the variant, how does the enrichment factor read?
A: 3.36

Q: For HIM, which enrichment factor is on record?
A: 0.97

Q: For FIK, which enrichment factor is on record?
A: 2.32

Q: For FIF, which enrichment factor is on record?
A: 2.32

Q: How did the enrichment factor turn out when FIG was run?
A: 2.32

Q: Which enrichment factor does the source give for FIE here?
A: 1.7

Q: How did the enrichment factor turn out when FIM was run?
A: 2.19

Q: How did the enrichment factor turn out when FII was run?
A: 0.463

Q: For FIH, which enrichment factor is on record?
A: 2.9

Q: For FIL, which enrichment factor is on record?
A: 1.74

Q: Which enrichment factor does the source give for YIH here?
A: 2.32

Q: How did the enrichment factor turn out when YIF was run?
A: 3.47

Q: YIE was tested. Which enrichment factor did it give?
A: 2.04

Q: Which enrichment factor does the source give for YIG here?
A: 1.39

Q: For YII, which enrichment factor is on record?
A: 0.463

Q: Which enrichment factor does the source give for YID here?
A: 2.25

Q: YIL was tested. Which enrichment factor did it give?
A: 1.51

Q: With YIK as the variant, how does the enrichment factor read?
A: 2.54

Q: How did the enrichment factor turn out when VIF was run?
A: 0.945

Q: Which enrichment factor does the source give for VID here?
A: 1.18

Q: With VIH as the variant, how does the enrichment factor read?
A: 1.16

Q: With VIK as the variant, how does the enrichment factor read?
A: 1.58

Q: For VIG, which enrichment factor is on record?
A: 0.579

Q: Which enrichment factor does the source give for VII here?
A: 0.64

Q: How did the enrichment factor turn out when VIL was run?
A: 0.884

Q: With VIE as the variant, how does the enrichment factor read?
A: 1.76

Q: For NIF, which enrichment factor is on record?
A: 1.88

Q: With NIH as the variant, how does the enrichment factor read?
A: 3.47

Q: For NIE, which enrichment factor is on record?
A: 2.81

Q: How did the enrichment factor turn out when NIK was run?
A: 2.13

Q: How did the enrichment factor turn out when NII was run?
A: 1.09

Q: For NIL, which enrichment factor is on record?
A: 1.08

Q: How did the enrichment factor turn out when NIG was run?
A: 3.6

Q: For NIM, which enrichment factor is on record?
A: 1.12

Q: With NID as the variant, how does the enrichment factor read?
A: 1.95

Q: With KIF as the variant, how does the enrichment factor read?
A: 0.891

Q: Which enrichment factor does the source give for KIG here?
A: 1.45

Q: For KII, which enrichment factor is on record?
A: 0.588

Q: How did the enrichment factor turn out when KIL was run?
A: 1.54

Q: How did the enrichment factor turn out when KIM was run?
A: 1.87

Q: Which enrichment factor does the source give for KID here?
A: 1.65

Q: How did the enrichment factor turn out when KIE was run?
A: 2.32

Q: How did the enrichment factor turn out when KIH was run?
A: 1.32

Q: For KIK, which enrichment factor is on record?
A: 2.11

Q: For CIF, which enrichment factor is on record?
A: 0.806

Q: CIL was tested. Which enrichment factor did it give?
A: 1.31

Q: CII was tested. Which enrichment factor did it give?
A: 1.1

Q: For CID, which enrichment factor is on record?
A: 1.96

Q: How did the enrichment factor turn out when CIH was run?
A: 0.597

Q: CIE was tested. Which enrichment factor did it give?
A: 1.53

Q: With CIK as the variant, how does the enrichment factor read?
A: 3.12

Q: Which enrichment factor does the source give for CIG here?
A: 0.796

Q: Which enrichment factor does the source give for AIM here?
A: 0.822

Q: Which enrichment factor does the source give for AIE here?
A: 2.37

Q: For AIK, which enrichment factor is on record?
A: 2.45

Q: Which enrichment factor does the source give for AII here?
A: 0.709

Q: For AIG, which enrichment factor is on record?
A: 0.618

Q: Which enrichment factor does the source give for AIF here?
A: 1.29

Q: Which enrichment factor does the source give for AIH here?
A: 3.88

Q: Which enrichment factor does the source give for AIL here?
A: 0.621

Q: Which enrichment factor does the source give for IIF here?
A: 1.07

Q: IIL was tested. Which enrichment factor did it give?
A: 0.78

Q: IIG was tested. Which enrichment factor did it give?
A: 1.69

Q: Which enrichment factor does the source give for IIH here?
A: 1.16

Q: With IIK as the variant, how does the enrichment factor read?
A: 3.94

Q: Which enrichment factor does the source give for IID here?
A: 1.35

Q: Which enrichment factor does the source give for III here?
A: 0.956

Q: IIM was tested. Which enrichment factor did it give?
A: 1.21

Q: How did the enrichment factor turn out when IIE was run?
A: 0.993

Q: For PIK, which enrichment factor is on record?
A: 1.23

Q: With PIG as the variant, how does the enrichment factor read?
A: 1.21

Q: For PII, which enrichment factor is on record?
A: 0.833

Q: PIM was tested. Which enrichment factor did it give?
A: 0.924

Q: Which enrichment factor does the source give for PIH here?
A: 1.69

Q: Which enrichment factor does the source give for PIL here?
A: 0.824

Q: How did the enrichment factor turn out when PID was run?
A: 1.98

Q: PIE was tested. Which enrichment factor did it give?
A: 1.89

Q: For PIF, which enrichment factor is on record?
A: 0.742

Q: Which enrichment factor does the source give for WIE here?
A: 2.65

Q: With WIK as the variant, how does the enrichment factor read?
A: 1.47

Q: WII was tested. Which enrichment factor did it give?
A: 1.54

Q: With WIG as the variant, how does the enrichment factor read?
A: 0.772

Q: For WIL, which enrichment factor is on record?
A: 1.74

Q: How did the enrichment factor turn out when WIH was run?
A: 2.32

Q: With WIF as the variant, how does the enrichment factor read?
A: 1.93

Q: Which enrichment factor does the source give for WID here?
A: 2.17

Q: How did the enrichment factor turn out when SID was run?
A: 1.95

Q: With SIF as the variant, how does the enrichment factor read?
A: 0.862

Q: SIG was tested. Which enrichment factor did it give?
A: 0.772

Q: With SIL as the variant, how does the enrichment factor read?
A: 0.524

Q: How did the enrichment factor turn out when SIH was run?
A: 2.2

Q: With SII as the variant, how does the enrichment factor read?
A: 0.931

Q: SIE was tested. Which enrichment factor did it give?
A: 2.11

Q: SIK was tested. Which enrichment factor did it give?
A: 3.58

Q: MID was tested. Which enrichment factor did it give?
A: 1.35

Q: How did the enrichment factor turn out when MIF was run?
A: 1.16

Q: Which enrichment factor does the source give for MIG here?
A: 0.386

Q: How did the enrichment factor turn out when MIM was run?
A: 0.907

Q: How did the enrichment factor turn out when MII was run?
A: 0.743

Q: With MIL as the variant, how does the enrichment factor read?
A: 0.858

Q: With MIK as the variant, how does the enrichment factor read?
A: 2.13

Q: For MIE, which enrichment factor is on record?
A: 0.902

Q: How did the enrichment factor turn out when MIH was run?
A: 0.695

Q: With DIK as the variant, how does the enrichment factor read?
A: 1.55

Q: Which enrichment factor does the source give for DIL here?
A: 1.18

Q: Which enrichment factor does the source give for DIF here?
A: 1.08

Q: For DIH, which enrichment factor is on record?
A: 2.62

Q: DIG was tested. Which enrichment factor did it give?
A: 1.42

Q: DID was tested. Which enrichment factor did it give?
A: 1.29

Q: Which enrichment factor does the source give for DIE here?
A: 1.72

Q: With DII as the variant, how does the enrichment factor read?
A: 1.41

Q: RID was tested. Which enrichment factor did it give?
A: 2.08

Q: Which enrichment factor does the source give for RIG here?
A: 0.975

Q: Which enrichment factor does the source give for RIE here?
A: 1.9

Q: Which enrichment factor does the source give for RIF here?
A: 0.745

Q: Which enrichment factor does the source give for RIL here?
A: 0.667

Q: For RII, which enrichment factor is on record?
A: 0.811

Q: How did the enrichment factor turn out when RIH was run?
A: 1.54

Q: With RIK as the variant, how does the enrichment factor read?
A: 1.47
